Source: the supplement of paper PMC3334620
The full ranking holds about 33,000 sequences; the median of “E-score (-0.5 to 0.5)” is about -0.04, and the highest 2% start at about 0.36. The list shows a part of the results.

Target: T1, Hmlalpha2 (UniProt P0CY09)
T1 sequence: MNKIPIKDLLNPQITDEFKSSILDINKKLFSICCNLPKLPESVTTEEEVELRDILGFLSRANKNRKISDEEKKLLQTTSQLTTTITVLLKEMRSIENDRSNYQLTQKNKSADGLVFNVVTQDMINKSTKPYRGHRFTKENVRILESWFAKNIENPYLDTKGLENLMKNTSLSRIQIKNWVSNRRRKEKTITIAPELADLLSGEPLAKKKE
Test: PBM E-score (8-mer binding enrichment) (E-score (-0.5 to 0.5)); higher = stronger / more preferred TF binding; most listed sequences are background and not binding sites
Settings: protein concentration: 200 nM; construct: GST-full length
Description: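 Universal 'all 10-mer' protein binding microarrays (Agilent AMADID 015681) probed with GST-tagged S. cerevisiae TFs (full-length or DBD) made by in vitro transcription/translation (PURExpress), about 100-200 nM. Bound TF was detected with fluorescent anti-GST. Each ungapped 8-mer (which stands for itself and its reverse complement) is scored by the PBM enrichment score (E-score), a modified Wilcoxon-Mann-Whitney statistic from -0.5 to +0.5, computed with the Universal PBM Analysis Suite. Scale: above 0.35 generally sequence-specific binding.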

| Sequence | PBM E-score |
| --- | --- |
| AGCGGGTA | 0.0406 |
| GGCTCAAC | -0.0255 |
| CATGCCCC | -0.0941 |
| TGTTGGAA | 0.256 |
| AACACGCA | 0.412 |
| CGTCTCCC | -0.229 |
| GCATGCGC | 0.0917 |
| AGACTTGA | 0.0747 |
| AGTACAAT | 0.25 |
| ACTACAGC | -0.0472 |
| CTGTCCAC | -0.0348 |
| CCACGAGG | -0.0969 |
| AAATATAA | 0.225 |
| AAACTGTA | 0.241 |
| GGTGGGGA | -0.0925 |
| ACAATTTG | 0.0868 |
| AGTGTAAT | 0.357 |
| AAACGGCG | -0.106 |
| CACTAAAC | 0.161 |
| CCGGGCGA | -0.0675 |
| AGCGTCGC | -0.0785 |
| AAACCGAG | -0.204 |
| ATGACACG | 0.404 |
| AAGCAGGG | -0.116 |
| GCATAATA | 0.223 |

| Sequence | PBM E-score |
| --- | --- |
| AGGACGGA | -0.372 |
| AGGGCAAA | -0.106 |
| GCTGCAAC | -0.139 |
| GCGCAAAC | -0.0215 |
| ATGTGTTC | 0.233 |
| AGCGAGGA | -0.159 |
| CATACGGA | -0.1 |
| CATGAAAG | 0.00206 |
| CCGGGCGC | -0.371 |
| CACATGAG | 0.0365 |
| ATGCCCGC | -0.223 |
| CGAGCGCA | 0.0619 |
| CAACTACC | -0.0448 |
| ACTTAAAC | 0.167 |
| TAGACGCA | 0.0971 |
| GCCAGCAC | -0.176 |
| TCGACGAA | 0.0363 |
| CGCACCCG | -0.0297 |
| TCCGGAAA | -0.0989 |
| GTTAGGAA | 0.0561 |
| CAGCAAAC | 0.0641 |
| CCCTACTA | -0.0755 |
| GATATGTA | 0.345 |
| TTAGCGAA | 0.0147 |
| CATTGAAG | 0.0316 |

| Sequence | PBM E-score |
| --- | --- |
| CGGCTCGC | -0.0476 |
| ACTTTTAT | -0.0402 |
| TAGCGTGA | -0.0325 |
| TGGGTACA | 0.0761 |
| AATAAGAT | 0.147 |
| GGGTAATA | 0.193 |
| ATCATTTG | -0.0104 |
| CGATACGA | -0.112 |
| ACAAGCAT | 0.247 |
| GAAGTAGA | -0.0167 |
| ATGCTGAC | 0.113 |
| TAAACGGA | 0.0215 |
| TCACTGCA | 0.148 |
| CGATGCTC | -0.277 |
| AGCCACAG | -0.242 |
| CCCCTACC | -0.151 |
| ACAAAAAG | 0.00072 |
| CAATTCCA | -0.2 |
| CGTTATGC | -0.0512 |
| CTTACTGA | -0.0317 |
| CCCGATAG | -0.399 |
| ATCTACAC | 0.45 |
| CGGCCTAC | -0.0673 |
| ACTTTGTA | 0.271 |
| GTGCACAA | -0.0722 |

| Sequence | PBM E-score |
| --- | --- |
| ATTGTCTG | 0.0832 |
| AGTACCGC | -0.0161 |
| ATGGTCGG | -0.269 |
| CAGAAAGC | 0.0828 |
| AAGTCCGT | 0.00455 |
| ACGTCGAA | 0.0747 |
| GGTTTAAA | 0.249 |
| CAATATAG | 0.0174 |
| AGGCATAA | -0.23 |
| CTGCACTA | -0.07 |
| ACTAGGAC | -0.164 |
| AGATCTTG | 0.0404 |
| AACTCTGA | 0.0712 |
| AACCAGAA | 0.163 |
| GAAAGTGA | -0.067 |
| CTGCTAGC | -0.137 |
| CTGAATTA | 0.0283 |
| AAATTACT | 0.209 |
| AGCGCAAT | 0.0383 |
| CCGACCAC | -0.086 |
| TAGTAGGA | -0.261 |
| ACTAACAA | 0.253 |
| TCCAACAA | 0.264 |
| AAGGACGA | -0.138 |
| CAATCTCG | -0.0917 |

| Sequence | PBM E-score |
| --- | --- |
| GACGTATC | -0.059 |
| CGACGCCG | -0.106 |
| AAAAGAGG | -0.355 |
| GAATTCGC | -0.105 |
| ATGCTCCA | -0.178 |
| GCTTTGAC | 0.074 |
| AGGTATAC | 0.196 |
| ACCGACAC | -0.0222 |
| ACCGGGCC | -0.269 |
| AGATGACT | -0.171 |
| AATATTCG | 0.019 |
| AGGCCTCG | -0.279 |
| GCAAACGC | 0.0916 |
| GACGTGCA | -0.00154 |
| CCCTACCC | -0.269 |
| TCTCAGAA | -0.0663 |
| TGGGAAAA | -0.224 |
| CAATGCGC | -0.0478 |
| AATATTGA | 0.14 |
| AAGCATTA | 0.057 |
| CTACGGGC | -0.102 |
| TCAAGTGA | -0.0789 |
| ACTTCGCA | 0.0202 |
| ACACCGTA | 0.00356 |
| CCTCATCC | -0.317 |

| Sequence | PBM E-score |
| --- | --- |
| CAGGTAGC | -0.0622 |
| AGAACCTC | -0.0832 |
| TAATTGTA | 0.335 |
| CTGGGGAA | -0.271 |
| ATCATCAC | 0.0892 |
| CCGTAGCG | -0.275 |
| ACTTTGTG | 0.0729 |
| GTTACATA | 0.421 |
| CGCCACGA | -0.133 |
| ACCAAATA | 0.191 |
| ACGCGGGA | 0.0935 |
| GCCTGCAC | -0.181 |
| CTCTCATA | -0.0955 |
| TGGCCGAA | -0.0705 |
| GTTCGGTA | 0.0665 |
| AACGGATG | 0.114 |
| CGTCTACA | 0.232 |
| CGATGCTA | -0.00469 |
| CATGACAC | 0.328 |
| CAAGTCTG | -0.00344 |
| CCAACATA | 0.314 |
| CAGGGTGA | -0.13 |
| CGTGCGCA | -0.0512 |
| CCCTAAGC | -0.183 |
| AGTCGCTC | -0.119 |

| Sequence | PBM E-score |
| --- | --- |
| CAGCATTC | -0.0591 |
| ACTTCTGG | -0.135 |
| ATCTGAAC | -0.115 |
| TAACTTGA | 0.122 |
| GCCATCAA | -0.0178 |
| CGTCTTCC | -0.218 |
| CCTACGCA | 0.205 |
| AGCCTACT | -0.162 |
| ATCGTCCC | -0.167 |
| GACCGAGA | -0.16 |
| CCCTCCAG | -0.384 |
| AACCTCGC | -0.116 |
| GTTGCCGA | -0.0601 |
| AAGCGTCG | -0.0441 |
| AGGCAGCA | -0.0408 |
| CGTGCCAG | -0.205 |
| AAGGTGAT | 0.0377 |
| CCGACGAC | -0.191 |
| AATATAAT | 0.198 |
| CCTTAGAC | -0.0859 |
| ACCACAAA | 0.0536 |
| CTCCATTA | -0.137 |
